Data taken from the supplement of paper PMC11417369.
The other results are listed elsewhere or left out.

What follows are sequences tested on PF3D7_0420300 AP2 domain 1 (GST-tagged) (assay: gcPBM binding intensity (ln(normalized median fluorescence intensity)); higher = stronger DNA binding).
Procedure, shortened: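 Binding intensity is defined as the maximum Masliner-normalised natural-log median intensity across replicate spots for either probe orientation. It was measured on an Agilent 4 × 180k array of primer-extended double-stranded 36-bp intergenic genomic probes and negative controls, to which GST-tagged P. falciparum DNA-binding domains made in E. coli were applied for 1 h in 1× PBS with 1% milk, 0.2 mg/ml BSA, 0.5% salmon testes DNA and 0.03% Triton X-100. Detection was by Alexa488 anti-GST antibody and scanning at 488 nm.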

Sequence	gcPBM binding intensity (ln)
AATAATAAAAAATATACACACATATATATATATATA [CACACA_site25]	9.35
GCTTATAAAGGCAGAAGTACTGTATTCCTATATATA [XGTACX_site8865]	9.22
AAAAAAAAAAAAAAATGTACATATGGTATGCATATA [XGTACX_site3225]	9.24
TTGGCATACGGACACACACACACACCCAGACATATA [CACACA_site4492]	10.2
TTATACAAATTCATGGGTACAAACAAACATATATCA [XGTACX_site6237]	9.51
TATACCTATAAATACACACACATATAAATAAATATA [CACACA_site6153]	9.99
AAAATATATACTCCATCACACACCAAAAAGAAAAAA [CACACA_site2542]	9.63
TTTTAATGTACCAGTGTGCACCTTGCGTACATATTA [GTGCAC_site9957]	9.2
ATTCAAAAGATGTATACACACATGTGTATAATATAA [CACACA_site7197]	9.57
AATAATATATATATAATACACACTATTATAATCACA [CACACA_site1310]	9.58
TCCTTTATTTTTAAAGTGCATATACATGTACATTAT [GTGCAC_site9445]	9.13
GAAGAAAAAAAATATACACACATACGATCATACATA [CACACA_site5227]	9.87
CAGCTCTTAAGAATTACACACATATACACATATATA [CACACA_site7524]	9.58
ATACATAAATACAAACGTACATACATACATACATAC [XGTACX_site7824]	9.36
GCAACACAAAAAATTACACACAAAAAAAATATATTA [CACACA_site916]	9.64
TTAAGGCATCAACATAGTACAATTTTTCTATAATAA [XGTACX_site1114]	9
ATTTAATACAAATACACACACAAATAAATACAGATA [CACACA_site5956]	10.2
TTTATAATTCTTACAACACACAATGTACTTTTATAT [CACACA_site8340]	9.43
TTTATTTCCTTTTTGTGTACATATATATGTAATTCA [XGTACX_site1718]	9.32

Sequence	gcPBM binding intensity (ln)
ATTCTACGCACGCGCACACACAACAAAAAAAAAAAA [CACACA_site3538]	9.41
GTGATGGTACAATATACACACTTAAAAAAAAAAAAT [CACACA_site5360]	9.26
CATGTGTGATAATGATGTACTATATTAAGCTAGTCC [XGTACX_site2690]	9.29
TATATACATATATATTGTACTTATTTTTATAATGTC [XGTACX_site3453]	9.27
TTTTTGTTAACAATGGGTACAAAAAAAAGGAAAATA [XGTACX_site7466]	9.16
CCCAAAAAATATCATAGTACTCAACATGACTACTAT [XGTACX_site7838]	9.16
AATTTTGTATAGGTATCACACATGAAATATATTATT [CACACA_site5526]	9.35
AAATAAAATAATAAAACATGCAAAAATAATGATTTA [TGCATGCA_site415]	9.49
ATAAAGATTAACAAAGTGCATTTATATATATAATCT [GTGCAC_site9407]	9.25
ATAAAAGATATGTATATGTATATGTATATATATATA [TGCATGCA_negctrl_site214]	9.2
TATAAATAAATAGATACACACATATTTATAAATACA [CACACA_site6219]	9.56
GCTTAAGGTAAATATAAAATATAGTGTATACTTTAG [XGTACX_negctrl_site585]	9.04
TTACGCTGCTATATAGTGCACATAATATATGACCTG	9.14
ACTTAGGAAATAAAACGTACATTAAATATATACATA [XGTACX_site2990]	9.17
TTTTATTTATTATTATGTACACACTATATTAAAACA [XGTACX_site1265]	9.27
TGAATAATCAATAGTACACACATATAAATATAAATA [CACACA_site7345]	9.66
GTATGTATGTATGTATGTACTTATTAATCAGTAAAA [XGTACX_site3844]	9.12
CAATATATTATATGGGTGCAAACCACATATAAATAA	9.11
TTAGGTATATATAAACGTACTCACAATATCATATAA [XGTACX_site8743]	9.31

Sequence	gcPBM binding intensity (ln)
TATATATACTTTTATGTACACACCTATAATATGGGT [CACACA_site1759]	9.35
AAATGTAATAATAAATGTACAAACATATATATGTAT [XGTACX_site8718]	9.38
AAGTTTAAAATCTTTGCACACATATAAATAAATATA [CACACA_site2554]	9.26
ATAAATAAATAAAAAAGTACATTTCCACTTTTAACA [XGTACX_site81]	9.2
TGCACCCACCAACACACACACAACTAAAAAATAATG [CACACA_site2566]	9.86
ACATATTAAATATGAGTGCAATATATATATATATAA	9.18
TATAATTATATAAATTGTACATAAAAAGTTTTTACT [XGTACX_site3621]	9.07
TATTATATCTTTTCAAGTACACATAACATACTTATT [XGTACX_site1081]	9.31
TTGTAATAAATAAAAGTGCATATATGGTTCCACTAT [GTGCAC_site9944]	9.19
AAGTATGTATCACAAAGTACTTAAGCATATATTTAA [XGTACX_site4121]	9.19
TAAATATATTGGAGAGGTACACTTTTGGCATTGAAA [XGTACX_site8447]	9.18
TTATTTTTTTATTCATGTACACAAGAACATTTCATT [XGTACX_site5744]	9.01
TACAAATATGGACACACACACATATATATATATATA [CACACA_site4488]	9.97
GTATATATAATGTGCCGTACATTTATATATTCAATA [XGTACX_site1051]	9.14
GTATAATAGAAACACACACACACACCCAAAAAAAAA [CACACA_site2010]	10.3
TTAAATGTAATATAATGTACGGATATTTACCATAAA [XGTACX_site1472]	9.24
TATTTCTTATTACATACACACATATACATAGATGAC [CACACA_site5729]	9.55
TCTTGTCTACCTTGTATTTAATATTTACATATATAA [TGCATGCA_negctrl_site320]	9.52
TATTTGTAAAAATTGTGTACTTAGAAAATTCCAAAA [XGTACX_site6007]	8.93
